# Source: the supplement of paper PMC8728848
# This is one part of the list.
# B1: FBG5 (Homo sapiens), Q8NI29 (protein)
# chain: MGASVSRGRAARVPAPEPEPEEALDLSQLPPELLLVVLSHVPPRTLLGRCRQVCRGWRALVDGQALWLLILARDHGATGRALLHLARSCQSPARNARPCPLGRFCARRPIGRNLIRNPCGQEGLRKWMVQHGGDGWVVEENRTTVPGAPSQTCFVTSFSWCCKKQVLDLEEEGLWPELLDSGRIEICVSDWWGARHDSGCMYRLLVQLLDANQTVLDKFSAVPDPIPQWNNNACLHVTHVFSNIKMGVRFVSFEHRGQDTQFWAGHYGARVTNSSVIVRVRLS
# How the values were obtained:
# Assay in all cases: glycan array binding signal (z-score within array); higher = stronger binding
# Settings in all cases: glycan notation: IUPAC condensed, linker removed
# [1] = biological target: Gal(b1-3)[Neu5Ac(a2-6)]GalNAc
# In short: (§1)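 The Consortium for Functional Glycomics database supplied 3228 glycan arrays, of which those lacking an available protein sequence were dropped. The binding signal, a within-array Z-score, was averaged across arrays of the same protein sequence and across linkers. Negative scores can be read as non-binding.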
# [2] = biological target: Gal(b1-3)[Neu5Ac(a2-6)]GlcNAc
# In short: as §1
# [3] = biological target: Gal(b1-3)[Neu5Ac(a2-6)]GlcNAc(a1-4)Gal(b1-4)Glc
# In short: as §1
# [4] = biological target: Gal(b1-3)[Neu5Ac(b2-6)]GlcNAc
# In short: as §1
# [5] = biological target: Gal(b1-4)GalNAc(a1-3)[Fuc(a1-2)]Gal(b1-4)GlcNAc
# In short: as §1
# [6] = biological target: Gal(b1-4)GalNAc(b1-3)[Fuc(a1-2)]Gal(b1-4)GlcNAc
# In short: as §1
# Gal(b1-4)Glc = biological target: Gal(b1-4)Glc
# In short: as §1
# Gal(b1-4)Glc6S = biological target: Gal(b1-4)Glc6S
# In short: as §1
# Gal(b1-4)GlcNAc = biological target: Gal(b1-4)GlcNAc
# In short: as §1
# [7] = biological target: Gal(b1-4)GlcNAc(b1-2)Man(a1-3)[Gal(b1-4)GlcNAc(b1-2)Man(a1-6)]Man(b1-4)GlcNAc(b1-4)GlcNAc
# In short: as §1
# [8] = biological target: Gal(b1-4)GlcNAc(b1-3)Gal(b1-4)Glc
# In short: as §1
# [9] = biological target: Gal(b1-4)GlcNAc(b1-3)Gal(b1-4)GlcNAc
# In short: as §1
# [10] = biological target: Gal(b1-4)GlcNAc(b1-3)Gal(b1-4)GlcNAc(b1-3)Gal(b1-4)GlcNAc
# In short: as §1
# [11] = biological target: Gal(b1-4)GlcNAc(b1-3)Gal(b1-4)[Fuc(a1-3)]GlcNAc(b1-3)Gal(b1-4)[Fuc(a1-3)]GlcNAc
# In short: as §1
# [12] = biological target: Gal(b1-4)GlcNAc(b1-3)GalNAc
# In short: as §1
# [13] = biological target: Gal(b1-4)GlcNAc(b1-3)[Gal(b1-4)GlcNAc(b1-6)]GalNAc
# In short: as §1
# [14] = biological target: Gal(b1-4)GlcNAc(b1-6)GalNAc
# In short: as §1
# [15] = biological target: Gal(b1-4)GlcNAc(b1-6)[Gal(b1-3)]GalNAc
# In short: as §1
# [16] = biological target: Gal(b1-4)GlcNAc(b1-6)[Gal(b1-3)]GlcNAc
# In short: as §1
# Gal3S(b1-3)GalNAc = biological target: Gal3S(b1-3)GalNAc
# In short: as §1
# Gal3S(b1-3)GlcNAc = biological target: Gal3S(b1-3)GlcNAc
# In short: as §1
# [17] = biological target: Gal3S(b1-3)[Fuc(a1-4)]GlcNAc
# In short: as §1
# Gal3S(b1-4)Glc = biological target: Gal3S(b1-4)Glc
# In short: as §1
# Gal3S(b1-4)Glc6S = biological target: Gal3S(b1-4)Glc6S
# In short: as §1
# Gal3S(b1-4)GlcNAc = biological target: Gal3S(b1-4)GlcNAc
# In short: as §1
# Gal3S(b1-4)GlcNAc6S = biological target: Gal3S(b1-4)GlcNAc6S
# In short: as §1
# Gal3S6S(b1-4)GlcNAc = biological target: Gal3S6S(b1-4)GlcNAc
# In short: as §1
# Gal3S6S(b1-4)GlcNAc6S = biological target: Gal3S6S(b1-4)GlcNAc6S
# In short: as §1
# Gal4S(b1-4)GlcNAc = biological target: Gal4S(b1-4)GlcNAc
# In short: as §1
# Gal4S6S(b1-4)GlcNAc = biological target: Gal4S6S(b1-4)GlcNAc
# In short: as §1
# Gal6S(b1-4)Glc = biological target: Gal6S(b1-4)Glc
# In short: as §1
# Gal6S(b1-4)Glc6S = biological target: Gal6S(b1-4)Glc6S
# In short: as §1
# Gal6S(b1-4)GlcNAc = biological target: Gal6S(b1-4)GlcNAc
# In short: as §1
# GalNAc(a1-3)Gal = biological target: GalNAc(a1-3)Gal
# In short: as §1
# GalNAc(a1-3)GalNAc = biological target: GalNAc(a1-3)GalNAc
# In short: as §1
# [18] = biological target: GalNAc(b1-3)Gal(a1-4)Gal(b1-4)GlcNAc
# In short: as §1
# GalNAc(b1-4)GlcNAc = biological target: GalNAc(b1-4)GlcNAc
# In short: as §1
# Glc(a1-4)Glc = biological target: Glc(a1-4)Glc
# In short: as §1
# Glc(a1-6)Glc(a1-6)Glc = biological target: Glc(a1-6)Glc(a1-6)Glc
# In short: as §1
# Glc(b1-4)Glc = biological target: Glc(b1-4)Glc
# In short: as §1
# Glc(b1-6)Glc = biological target: Glc(b1-6)Glc
# In short: as §1
# GlcA(b1-3)Gal = biological target: GlcA(b1-3)Gal
# In short: as §1
# GlcA(b1-6)Gal = biological target: GlcA(b1-6)Gal
# In short: as §1
# [19] = biological target: GlcNAc(a1-3)Gal(b1-4)GlcNAc
# In short: as §1
# [20] = biological target: GlcNAc(a1-6)Gal(b1-4)GlcNAc
# In short: as §1
# [21] = biological target: GlcNAc(b1-2)Gal(b1-3)GlcNAc
# In short: as §1
# [22] = biological target: GlcNAc(b1-2)Man(a1-3)[GlcNAc(b1-2)Man(a1-6)]Man(b1-4)GlcNAc(b1-4)GlcNAc
# In short: as §1
# GlcNAc(b1-3)Gal = biological target: GlcNAc(b1-3)Gal
# In short: as §1
# [23] = biological target: GlcNAc(b1-3)Gal(b1-3)GalNAc
# In short: as §1
# GlcNAc(b1-3)Gal(b1-4)Glc = biological target: GlcNAc(b1-3)Gal(b1-4)Glc
# In short: as §1
# [24] = biological target: GlcNAc(b1-3)Gal(b1-4)GlcNAc
# In short: as §1
# [25] = biological target: GlcNAc(b1-3)Gal(b1-4)GlcNAc(b1-3)Gal(b1-4)GlcNAc
# In short: as §1
# GlcNAc(b1-3)GalNAc = biological target: GlcNAc(b1-3)GalNAc
# In short: as §1
# [26] = biological target: GlcNAc(b1-3)[GlcNAc(b1-4)][GlcNAc(b1-6)]GlcNAc
# In short: as §1
# [27] = biological target: GlcNAc(b1-3)[GlcNAc(b1-6)]Gal(b1-4)GlcNAc
# In short: as §1
# [28] = biological target: GlcNAc(b1-3)[GlcNAc(b1-6)]GlcNAc
# In short: as §1
# [29] = biological target: GlcNAc(b1-4)Gal(b1-4)GlcNAc
# In short: as §1
# [30] = biological target: GlcNAc(b1-4)GlcNAc(b1-4)GlcNAc
# In short: as §1
# [31] = biological target: GlcNAc(b1-4)GlcNAc(b1-4)GlcNAc(b1-4)GlcNAc(b1-4)GlcNAc
# In short: as §1
# [32] = biological target: GlcNAc(b1-4)GlcNAc(b1-4)GlcNAc(b1-4)GlcNAc(b1-4)GlcNAc(b1-4)GlcNAc
# In short: as §1
binder,measurement,setting,value
B1,glycan array binding signal (z-score),[1],-0.237
same,glycan array binding signal (z-score),[2],-0.212
same,glycan array binding signal (z-score),[3],-0.228
same,glycan array binding signal (z-score),[4],-0.146
same,glycan array binding signal (z-score),[5],-0.188
same,glycan array binding signal (z-score),[6],-0.138
same,glycan array binding signal (z-score),Gal(b1-4)Glc,-0.202
same,glycan array binding signal (z-score),Gal(b1-4)Glc6S,-0.119
same,glycan array binding signal (z-score),Gal(b1-4)GlcNAc,-0.186
same,glycan array binding signal (z-score),[7],-0.102
same,glycan array binding signal (z-score),[8],-0.164
same,glycan array binding signal (z-score),[9],-0.132
same,glycan array binding signal (z-score),[10],-0.193
same,glycan array binding signal (z-score),[11],-0.087
same,glycan array binding signal (z-score),[12],-0.254
same,glycan array binding signal (z-score),[13],-0.152
same,glycan array binding signal (z-score),[14],-0.175
same,glycan array binding signal (z-score),[15],-0.079
same,glycan array binding signal (z-score),[16],-0.221
same,glycan array binding signal (z-score),Gal3S(b1-3)GalNAc,-0.205
same,glycan array binding signal (z-score),Gal3S(b1-3)GlcNAc,-0.161
same,glycan array binding signal (z-score),[17],-0.099
same,glycan array binding signal (z-score),Gal3S(b1-4)Glc,-0.15
same,glycan array binding signal (z-score),Gal3S(b1-4)Glc6S,0.206
same,glycan array binding signal (z-score),Gal3S(b1-4)GlcNAc,-0.166
same,glycan array binding signal (z-score),Gal3S(b1-4)GlcNAc6S,0.226
same,glycan array binding signal (z-score),Gal3S6S(b1-4)GlcNAc,-0.009
same,glycan array binding signal (z-score),Gal3S6S(b1-4)GlcNAc6S,2.32
same,glycan array binding signal (z-score),Gal4S(b1-4)GlcNAc,-0.127
same,glycan array binding signal (z-score),Gal4S6S(b1-4)GlcNAc,-0.011
same,glycan array binding signal (z-score),Gal6S(b1-4)Glc,-0.08
same,glycan array binding signal (z-score),Gal6S(b1-4)Glc6S,0.548
same,glycan array binding signal (z-score),Gal6S(b1-4)GlcNAc,-0.045
same,glycan array binding signal (z-score),GalNAc(a1-3)Gal,-0.208
same,glycan array binding signal (z-score),GalNAc(a1-3)GalNAc,-0.185
same,glycan array binding signal (z-score),[18],-0.139
same,glycan array binding signal (z-score),GalNAc(b1-4)GlcNAc,-0.199
same,glycan array binding signal (z-score),Glc(a1-4)Glc,-0.188
same,glycan array binding signal (z-score),Glc(a1-6)Glc(a1-6)Glc,-0.245
same,glycan array binding signal (z-score),Glc(b1-4)Glc,-0.165
same,glycan array binding signal (z-score),Glc(b1-6)Glc,-0.21
same,glycan array binding signal (z-score),GlcA(b1-3)Gal,-0.234
same,glycan array binding signal (z-score),GlcA(b1-6)Gal,-0.081
same,glycan array binding signal (z-score),[19],-0.094
same,glycan array binding signal (z-score),[20],-0.229
same,glycan array binding signal (z-score),[21],-0.224
same,glycan array binding signal (z-score),[22],-0.131
same,glycan array binding signal (z-score),GlcNAc(b1-3)Gal,-0.119
same,glycan array binding signal (z-score),[23],-0.102
same,glycan array binding signal (z-score),GlcNAc(b1-3)Gal(b1-4)Glc,-0.154
same,glycan array binding signal (z-score),[24],-0.128
same,glycan array binding signal (z-score),[25],-0.201
same,glycan array binding signal (z-score),GlcNAc(b1-3)GalNAc,-0.252
same,glycan array binding signal (z-score),[26],-0.095
same,glycan array binding signal (z-score),[27],-0.151
same,glycan array binding signal (z-score),[28],-0.132
same,glycan array binding signal (z-score),[29],-0.095
same,glycan array binding signal (z-score),[30],-0.141
same,glycan array binding signal (z-score),[31],0.055
same,glycan array binding signal (z-score),[32],-0.188
